Reference: PubChem BioAssay AID1745853 (National Center for Advancing Translational Sciences (NCATS), 2022)
The list shows a part of the results. The main result of the screen is listed elsewhere. These columns were measured beside it and carry no call.

Experiments:
Assay in all cases: Primary Screen for Target Class Profiling of Small Molecule Inhibitors of Methyltransferases
[1] = target: Glycine N-methyltransferase (Homo sapiens) (UniProt Q14749); details: purified enzyme, MTase-Glo SAH luminescence; measured here: GNMT inhibition; at 40 µM; stronger effect = lower value
Summary of the method: (§1)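 Each enzyme was assayed with SAM and its substrate. SAH formation detected by MTase-Glo luminescence; single-point 40 uM screen[…].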

[2] = target: Guanidinoacetate N-methyltransferase (Homo sapiens) (UniProt Q14353); details: purified enzyme, MTase-Glo SAH luminescence; measured here: GAMT inhibition; at 40 µM; stronger effect = lower value
Summary of the method: as §1

[3] = target: Histamine N-methyltransferase (Homo sapiens) (UniProt P50135); details: purified enzyme, MTase-Glo SAH luminescence; measured here: HNMT inhibition; at 40 µM; stronger effect = lower value
Summary of the method: as §1

[4] = target: Nicotinamide N-methyltransferase (Homo sapiens) (UniProt P40261); details: purified enzyme, MTase-Glo SAH luminescence; measured here: NNMT inhibition; at 40 µM; stronger effect = lower value
Summary of the method: as §1

[5] = target: Phenylethanolamine N-methyltransferase (Homo sapiens) (UniProt P11086); details: purified enzyme, MTase-Glo SAH luminescence; measured here: PNMT inhibition; at 40 µM; stronger effect = lower value
Summary of the method: as §1
On the % scale 0 is the no-effect control and ±100 the full control effect.

CN1C(=O)c2cc(C(=O)NCc3ccccc3F)nn2CC1(C)C(=O)NC1CCCC1 (stereo not given)
activity change, negative = inhibition [1]: 1.12%
activity change, negative = inhibition [2]: -7.25%
activity change, negative = inhibition [3]: 4.8%
activity change, negative = inhibition [4]: -1.34%
activity change, negative = inhibition [5]: -3.12%

Cc1cccc(CNC(=O)CCn2ccc3cc(S(=O)(=O)N4CCCCC4)ccc32)c1
activity change, negative = inhibition [1]: 6.24%
activity change, negative = inhibition [2]: 0.708%
activity change, negative = inhibition [3]: 7.42%
activity change, negative = inhibition [4]: 6.55%
activity change, negative = inhibition [5]: 3.77%

C=Cc1ccc(Cn2nc3n(CC(C)C)c(=O)c4ccc(C(=O)NC5CCCC5)cc4n3c2=O)cc1
activity change, negative = inhibition [1]: 4.58%
activity change, negative = inhibition [2]: 1.54%
activity change, negative = inhibition [3]: 7.91%
activity change, negative = inhibition [4]: 7.33%
activity change, negative = inhibition [5]: 7.11%

O=C1CCN(C(=O)c2ccco2)CCCC(C(=O)NCc2ccccc2)CCN1 (stereo not given)
activity change, negative = inhibition [1]: 3.12%
activity change, negative = inhibition [2]: 2.91%
activity change, negative = inhibition [3]: 1.89%
activity change, negative = inhibition [4]: 4.58%
activity change, negative = inhibition [5]: 5.19%

Cc1c(C(=O)Nc2ccc(N3CCC(N4CCOCC4)CC3)c(C#N)c2)cnn1-c1ccc(Cl)cc1
activity change, negative = inhibition [1]: -8.81%
activity change, negative = inhibition [2]: 1.29%
activity change, negative = inhibition [3]: -6.41%
activity change, negative = inhibition [4]: -9.34%
activity change, negative = inhibition [5]: -2.32%

CC(=O)N1CCCN(Cc2nnc(C(=O)N3CCC[C@@H]3C(c3ccccc3)c3ccccc3)n2-c2ccccc2)CC1
activity change, negative = inhibition [1]: -8.33%
activity change, negative = inhibition [2]: -1.84%
activity change, negative = inhibition [3]: -3.35%
activity change, negative = inhibition [4]: -29%
activity change, negative = inhibition [5]: 8.66%

O=C(c1ccccc1)N1CCC2(CC1)C(=O)NN=C2C1CC1
activity change, negative = inhibition [1]: -4.49%
activity change, negative = inhibition [2]: -8.38%
activity change, negative = inhibition [3]: -3.91%
activity change, negative = inhibition [4]: -11.1%
activity change, negative = inhibition [5]: -9.16%

CC(C)CNC(=O)C1CCCN(c2ccnc3ccnn23)C1 (stereo not given)
activity change, negative = inhibition [1]: -0.665%
activity change, negative = inhibition [2]: 2.64%
activity change, negative = inhibition [3]: -9.74%
activity change, negative = inhibition [4]: -4.79%
activity change, negative = inhibition [5]: -3.21%

CCOc1ccc(CN2C(=O)c3cc4oc(C)cc4n3CC2(C)C(=O)NC2CCCCCC2)cc1 (stereo not given)
activity change, negative = inhibition [1]: -6.65%
activity change, negative = inhibition [2]: 0%
activity change, negative = inhibition [3]: -4.39%
activity change, negative = inhibition [4]: -7.51%
activity change, negative = inhibition [5]: -2.65%

CC1CCN(Cc2nnnn2CC(=O)N(C)Cc2ccccn2)CC1
activity change, negative = inhibition [1]: -5.15%
activity change, negative = inhibition [2]: -0.666%
activity change, negative = inhibition [3]: -0.369%
activity change, negative = inhibition [4]: -3.02%
activity change, negative = inhibition [5]: 3.44%

COc1cc([C@H]2OC[C@](O)(Cc3ccc(O[C@@H]4O[C@H](CO)[C@@H](O)[C@H](O)[C@H]4O)c(OC)c3)[C@@H]2CO)ccc1O
activity change, negative = inhibition [1]: 2.08%
activity change, negative = inhibition [2]: 6.95%
activity change, negative = inhibition [3]: 11.1%
activity change, negative = inhibition [4]: -4.19%
activity change, negative = inhibition [5]: 5.51%

CCCn1c(=O)c2ccc(C(=O)NC3CCCCC3)cc2n2c(=O)n(CC(=O)NCc3ccccc3)nc12
activity change, negative = inhibition [1]: 7.91%
activity change, negative = inhibition [2]: 0.55%
activity change, negative = inhibition [3]: 10.9%
activity change, negative = inhibition [4]: 3.63%
activity change, negative = inhibition [5]: 6.86%

CCOc1ccc(CN2C(=O)c3ccc(-c4ccco4)n3CC2(C)C(=O)NCCC(C)C)cc1 (stereo not given)
activity change, negative = inhibition [1]: -0.202%
activity change, negative = inhibition [2]: 0%
activity change, negative = inhibition [3]: 7.31%
activity change, negative = inhibition [4]: 5.91%
activity change, negative = inhibition [5]: 2.93%

COc1cccc(N2C(=O)NC(=NC3CCCCC3)C23CCCN(CC2CCCCC2)C3)c1 (stereo not given)
activity change, negative = inhibition [1]: -21.1%
activity change, negative = inhibition [2]: 0.368%
activity change, negative = inhibition [3]: -18.3%
activity change, negative = inhibition [4]: -72.2%
activity change, negative = inhibition [5]: -4.77%

OCCN1CCN(CCCN2c3ccccc3C=Cc3ccccc32)CC1
activity change, negative = inhibition [1]: -4.18%
activity change, negative = inhibition [2]: 10.5%
activity change, negative = inhibition [3]: 4.17%
activity change, negative = inhibition [4]: -4.03%
activity change, negative = inhibition [5]: 8.32%

C=C1C[C@]23C[C@H]1[C@@H](O)C[C@H]2[C@@]12C=C[C@H](O)[C@@](C)(C(=O)O1)[C@H]2[C@@H]3C(=O)O
activity change, negative = inhibition [1]: -1.7%
activity change, negative = inhibition [2]: -4.8%
activity change, negative = inhibition [3]: 6.01%
activity change, negative = inhibition [4]: -16%
activity change, negative = inhibition [5]: -6.37%

Cc1cccc(CN2CCCn3nc(C(=O)NCCc4cccs4)cc3C2=O)c1
activity change, negative = inhibition [1]: -2.88%
activity change, negative = inhibition [2]: 0%
activity change, negative = inhibition [3]: 5.89%
activity change, negative = inhibition [4]: -2.68%
activity change, negative = inhibition [5]: 0.495%

CCCn1c(=O)c2ccc(Cl)cc2n2c(SCc3ccccc3F)nnc12
activity change, negative = inhibition [1]: 3.58%
activity change, negative = inhibition [2]: 0%
activity change, negative = inhibition [3]: 10.3%
activity change, negative = inhibition [4]: 2.66%
activity change, negative = inhibition [5]: 4.71%

FC(F)(F)c1ccnc(N2CC[C@H](c3nnc(-c4ccncc4)o3)C2)n1
activity change, negative = inhibition [1]: -6.84%
activity change, negative = inhibition [2]: -0.927%
activity change, negative = inhibition [3]: -0.685%
activity change, negative = inhibition [4]: -70.4%
activity change, negative = inhibition [5]: 2.6%

COCC(=O)N1CCN(c2nc3ncccc3o2)CC1
activity change, negative = inhibition [1]: -5.49%
activity change, negative = inhibition [2]: -7.99%
activity change, negative = inhibition [3]: -4.54%
activity change, negative = inhibition [4]: -15.5%
activity change, negative = inhibition [5]: -7.83%

CCC(C)NC(=O)c1ccc2c(=O)n(C)c3nn(CC(=O)Nc4ccc(C)c(F)c4)c(=O)n3c2c1 (stereo not given)
activity change, negative = inhibition [1]: 0.831%
activity change, negative = inhibition [2]: 7.27%
activity change, negative = inhibition [3]: 1.17%
activity change, negative = inhibition [4]: 0.749%
activity change, negative = inhibition [5]: 3.81%

COc1cccc2c1NC(c1cccc3ccccc13)C1CC=CC21 (stereo not given)
activity change, negative = inhibition [1]: -12.6%
activity change, negative = inhibition [2]: -8.4%
activity change, negative = inhibition [3]: -9.96%
activity change, negative = inhibition [4]: -18.3%
activity change, negative = inhibition [5]: -8.79%

COc1cccc(Nc2c(C(N)=O)cnc3c(C)cc(S(=O)(=O)c4cccc(C(=O)N(C)C)c4)cc23)c1
activity change, negative = inhibition [1]: -21%
activity change, negative = inhibition [2]: -11.9%
activity change, negative = inhibition [3]: -13.1%
activity change, negative = inhibition [4]: -41.6%
activity change, negative = inhibition [5]: -10.7%

Cn1c(CN2CCN3C(=O)NC[C@H]3C2)nc2ccccc21
activity change, negative = inhibition [1]: -4.95%
activity change, negative = inhibition [2]: -5.57%
activity change, negative = inhibition [3]: -1.81%
activity change, negative = inhibition [4]: -12.3%
activity change, negative = inhibition [5]: -19.9%

Cc1ccc(CSc2nnc3n(Cc4ccccc4)c(=O)c4ccc(C(=O)NC(C)C)cc4n23)cc1
activity change, negative = inhibition [1]: 3.42%
activity change, negative = inhibition [2]: 0.357%
activity change, negative = inhibition [3]: 9.9%
activity change, negative = inhibition [4]: 3.76%
activity change, negative = inhibition [5]: 4.36%

CSc1ccccc1C(=O)N1CCN(C(C)=O)CC(O)C1 (stereo not given)
activity change, negative = inhibition [1]: -3.93%
activity change, negative = inhibition [2]: -10%
activity change, negative = inhibition [3]: -2.82%
activity change, negative = inhibition [4]: -14.3%
activity change, negative = inhibition [5]: -8.65%

CCOCCCNC(=O)c1cc2n(n1)CC(C)(C(=O)NCc1ccc(C)cc1)N(C)C2=O (stereo not given)
activity change, negative = inhibition [1]: 6.02%
activity change, negative = inhibition [2]: 0%
activity change, negative = inhibition [3]: 5.1%
activity change, negative = inhibition [4]: 6.23%
activity change, negative = inhibition [5]: 4.6%

C[C@]12CCC(=O)C=C1[C@@H](O)C[C@@H]1[C@@H]2[C@@H](O)C[C@@]2(C)[C@H]1CC[C@]2(O)C(=O)CO
activity change, negative = inhibition [1]: 0.627%
activity change, negative = inhibition [2]: 7.64%
activity change, negative = inhibition [3]: 11.5%
activity change, negative = inhibition [4]: -4.13%
activity change, negative = inhibition [5]: 6.49%

CCOc1ccc(CCNC(=O)c2cc3n(n2)CC(C)(C(=O)NCc2ccc(C)cc2)N(C)C3=O)cc1 (stereo not given)
activity change, negative = inhibition [1]: 4.05%
activity change, negative = inhibition [2]: 0%
activity change, negative = inhibition [3]: 1.12%
activity change, negative = inhibition [4]: 6.8%
activity change, negative = inhibition [5]: 3.75%
